Among all 420,000 compounds or so, about 64,000 (15%) were called active. This list was built around the results that the source calls inconclusive (neither active nor inactive); the mix of calls is not that of the screen. Calls follow the shape of the dose curve; as a rule, active = well fitted inhibition curve with a large enough effect; inconclusive = small, poorly fitted or top-dose-only effect; inactive = flat fitted curve, though single readings scatter. No potency is given beside an inconclusive call; the fits are too rough.
Experiment: qHTS for Inhibitors of human tyrosyl-DNA phosphodiesterase 1 (TDP1): qHTS in cells in absence of CPT; also: nearly all actives have a fitted effect of over 55% in size
Conditions: DT40 Tdp1-/- hTDP1 cells, no CPT, ATP luminescence, 48 h; activity change, negative = growth inhibition: at 46.2 µM (top of the series) unless noted
Outline: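 Stably hTDP1-transfected Tdp1-null chicken DT40 cells were treated with library compounds minus camptothecin and grown for at least 48 hr at 37 °C, after which cellular ATP was quantified by luminescence.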
% is scaled to controls: 0 for no effect and ±100 for the full control effect; potency is read from the fitted curve at half-maximal effect; tags tell the direction and shape of the fitted curve.

| Compound | Potency | activity change, negative = growth inhibition |
| --- | --- | --- |
| O=C1c2ccccc2NC(c2ccccc2O)N1O (centres undefined) | inconclusive [inhibitor, single point] | – |
| CN(C)NC(=O)c1ccsc1NC(=O)c1ccc(S(=O)(=O)N2CCCC2)cc1 | inconclusive [inhibitor, partial curve] | – |
| CS(=O)(=O)N1CCC(c2noc(-c3ccc(C(F)(F)F)cc3)n2)CC1 | active: 10.3 µM | – |
| N#CCc1c(C#N)c(N)nc(N2CCN(C=O)CC2)c1C#N | inactive | – |
| Cc1ccc(OCC(O)Cn2c(N)nc3c2c(=O)n(C)c(=O)n3C)cc1 (centres undefined) | inconclusive [inhibitor, partial curve] | – |
| O=C1OCCN1/N=C/c1ccc([N+](=O)[O-])o1 | active: 14.6 µM | – |
| O=C1CN(C(=O)COC(=O)c2ccccc2NCc2ccco2)c2ccccc2N1 | inactive | – |
| CCOc1ccccc1NC(=O)Nc1nnc(N2CCCC(C)C2)s1 (centres undefined) | inconclusive [inhibitor, single point] | – |
| Cc1cccc(C(=O)NCc2nnc3c4ccccc4c(-c4ccccc4)nn23)c1 | inconclusive [inhibitor, single point] | – |
| O=C(NCc1ccc(F)cc1)C1CCCN1S(=O)(=O)c1cccc2nsnc12 (centres undefined) | inactive | – |
| COc1cccc2nccc(/C=C/c3ccc(N(C)C)cc3)c12 | active: 12.6 µM | – |
| Cc1ccc(C2=CC(c3ccc(C)cc3)n3ncnc3N2)cc1 (centres undefined) | inconclusive [inhibitor, single point] | – |
| COCCNC(=O)CSc1nc2ccccc2c(=O)n1CCC(=O)NCCc1ccc(OC)c(OC)c1 | inactive | – |
| Cc1cccc2cc(CN(Cc3cccs3)Cc3nnnn3Cc3ccccc3)c(=O)[nH]c12 | active: 23.1 µM | – |
| CCN(Cc1ccccc1)c1ncnc2c1cnn2-c1ccc(F)cc1 | inconclusive [inhibitor, partial curve] | – |
| Cc1ccc(-c2nnc(Nc3cccc(Cl)c3)c3ccccc23)cc1S(=O)(=O)N1CCN(C)CC1 | active: 20.6 µM | – |
| CCOc1ccc(N(CC(=O)NC2CCCC2)C(=O)CCC(=O)Nc2nccs2)cc1 | inactive | – |
| COc1ccccc1-c1nnc(NC(=O)c2ccc3ncsc3c2)o1 | inconclusive [inhibitor, single point] | – |
| COc1ccc(C(NC(=O)C2CCN(CCCc3ccccc3)CC2)c2cccs2)cc1 (centres undefined) | inconclusive [inhibitor, single point] | – |
| COc1cccc(Nc2nc(-c3ccccc3)nc3ccccc23)c1 | inconclusive [inhibitor, single point] | – |
| CC1(C)CC2CC(C)(CN2S(=O)(=O)c2ccc(N)cc2)C1 (centres undefined) | inconclusive [inhibitor, single point] | – |
| CC(C)n1c(SCC(=O)Nc2ccc3c(c2)OCO3)nc2c1c(=O)n(C)c(=O)n2C | inconclusive [inhibitor, partial curve] | – |

| Compound | Potency | activity change, negative = growth inhibition |
| --- | --- | --- |
| CCCCNC(=O)CNC(=O)c1nn(-c2ccc(OC)cc2)c(=O)c2ccccc12 | inactive | – |
| Cc1ccc(C(=O)Nc2ccccc2Cl)cc1 | inconclusive [inhibitor, partial curve, poor fit] | – |
| NC(=O)N/N=C/c1ccc2cccc(OCc3ccccc3)c2n1 | inconclusive [inhibitor, single point] | – |
| CCOc1ccc(Nc2cc(C(=O)NCc3ccccc3Cl)c3ccccc3n2)cc1 | inconclusive [inhibitor, partial curve] | – |
| Cc1cccc(NC(=O)Cn2c(=O)n(CCCCCC(=O)NCc3ccccc3)c(=O)c3sccc32)c1 | inconclusive [inhibitor, single point] | – |
| Cc1cccnc1NC(=O)Cn1nc(-c2ccccc2)oc1=S | inconclusive [inhibitor, partial curve] | – |
| CC(=O)Nc1ccc(Nc2ncc([N+](=O)[O-])c(Nc3ccc(NC(C)=O)cc3)n2)cc1 | inconclusive [inhibitor, full curve] | – |
| COc1ccccc1OCCn1c(CO)nc2ccccc21 | inconclusive [inhibitor, partial curve] | – |
| COc1ccc2c(=O)c3c(=O)n(Cc4ccco4)c(-c4ccccc4)nc3oc2c1 | inconclusive [inhibitor, partial curve] | – |
| COc1ccccc1OCc1cc(C(=O)N2CCCC(OCc3cccnc3)C2)no1 (centres undefined) | inconclusive [inhibitor, partial curve] | – |
| CCCn1c(=O)c2ccccc2n2c(SCC(=O)/C(C#N)=C(\C)N)nnc12 | inactive | – |
| Cc1ccc(-n2cc(CNCCCN3CCCC3=O)c(-c3ccc(F)cc3)n2)cc1 | active: 18.4 µM | – |
| Cc1ccc(Cl)cc1N1CCN(C(=O)c2noc(C(C)C)c2[N+](=O)[O-])CC1 | inconclusive [inhibitor, single point] | – |
| COc1ccc(C(=O)NC2(C(F)(F)F)C(=O)N(Cc3ccco3)C3=C2C(=O)CC(C)(C)C3)cc1OC (centres undefined) | – | inconclusive: -31.6% [inhibitor] |
| COc1ccc(CNCC(=O)Nc2cc(OC)cc(OC)c2)cc1 | inconclusive [inhibitor, single point] | – |
| Cc1nn(Cc2noc(C(=O)NCc3ccccn3)n2)c(C)c1Br | inactive | – |
| C=CCC[C@@H](CCCCC)OC(=O)/C=C/[C@@H](O)[C@H](O)C[C@H](O)CC=C | active: 18.4 µM | – |
| O=C(COC(=O)CNS(=O)(=O)/C=C/c1ccccc1)Nc1cccc2ccccc12 | inactive | – |
| CC(C)(C)CNC(=O)c1cc2c(Br)ccc(Br)c2nc1N | inconclusive [inhibitor, partial curve] | – |
| CCOC(=O)N1CCN(C(=O)c2ccc3c(c2)N(Cc2ccccc2F)C(=O)c2ccccc2S3(=O)=O)CC1 | inconclusive [inhibitor, partial curve] | – |
| CCCC(=O)Nc1cc(-c2nn(C)c(=O)c3ccccc23)ccc1N1CCCCC1 | inconclusive [inhibitor, single point] | – |
| Cc1cc(C)cc(NCc2cc(=O)oc3cc(-c4ccccc4)c(O)cc23)c1 | inconclusive [inhibitor, single point] | – |

From PubChem BioAssay AID686978 (National Center for Advancing Translational Sciences (NCATS), 2013)
